# Experimental data taken from the supplement of paper PMC3334620.
# In all, about 33,000 sequences were measured (“E-score (-0.5 to 0.5)”: median about -0.043, highest 2% from about 0.37 on). This is one part of the list.
# Target: T1, Upc2 (UniProt Q12151)
# T1 sequence: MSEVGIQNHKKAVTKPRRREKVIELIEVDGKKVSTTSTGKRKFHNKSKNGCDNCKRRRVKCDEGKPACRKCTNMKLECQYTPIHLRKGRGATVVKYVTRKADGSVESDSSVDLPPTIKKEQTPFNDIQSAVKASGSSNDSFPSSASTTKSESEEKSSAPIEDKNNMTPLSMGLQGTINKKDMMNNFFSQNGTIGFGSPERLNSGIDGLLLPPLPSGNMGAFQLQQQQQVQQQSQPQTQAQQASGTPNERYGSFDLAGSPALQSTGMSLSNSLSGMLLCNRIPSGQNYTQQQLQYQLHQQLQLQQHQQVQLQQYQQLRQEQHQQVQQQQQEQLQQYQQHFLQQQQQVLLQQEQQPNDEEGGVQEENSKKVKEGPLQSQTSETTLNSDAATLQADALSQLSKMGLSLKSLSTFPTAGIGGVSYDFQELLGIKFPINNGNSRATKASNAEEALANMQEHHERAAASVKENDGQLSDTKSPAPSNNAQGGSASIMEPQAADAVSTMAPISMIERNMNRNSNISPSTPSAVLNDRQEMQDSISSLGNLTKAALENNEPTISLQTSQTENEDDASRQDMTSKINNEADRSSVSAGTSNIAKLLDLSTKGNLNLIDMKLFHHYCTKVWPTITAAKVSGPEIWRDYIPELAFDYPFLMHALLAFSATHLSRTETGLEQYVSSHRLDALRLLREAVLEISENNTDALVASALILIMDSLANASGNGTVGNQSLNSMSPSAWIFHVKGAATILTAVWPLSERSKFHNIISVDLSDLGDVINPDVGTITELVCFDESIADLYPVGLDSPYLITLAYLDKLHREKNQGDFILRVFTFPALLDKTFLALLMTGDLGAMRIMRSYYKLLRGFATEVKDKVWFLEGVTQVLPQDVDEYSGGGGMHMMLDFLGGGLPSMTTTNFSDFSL
# Assay: PBM E-score (8-mer binding enrichment) (E-score (-0.5 to 0.5)); higher = stronger / more preferred TF binding; most listed sequences are background and not binding sites
# Details: protein concentration: 200 nM; construct: GST-full length
# How it was run: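 Universal all-10-mer Agilent arrays, double-stranded by primer extension on fresh or once-stripped slides, were probed with about 100-200 nM GST-tagged yeast transcription factors made by PURExpress. Fluorescent anti-GST detected bound protein, and masliner normalised the scans. E-scores from the Universal PBM Analysis Suite were given to each ungapped eight-base word pooled with its reverse complement.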
row,Sequence,PBM E-score
1,CAGTCCAG,-0.254
2,AGATAAAC,0.238
3,ACTGGACC,0.0454
4,GAATGTGC,0.0279
5,ATCATGAA,-0.0399
6,CAGCGCAA,-0.0763
7,AAGACATG,-0.154
8,GGCCCAAA,0.0278
9,CAGTTTGC,0.06
10,CATAAAGG,-0.152
11,CCTCCTAA,-0.169
12,CAGTCTCC,-0.188
13,ATTGAGCC,-0.18
14,TATAAGGA,0.133
15,TAAGTAGA,-0.00088
16,CACCTAAG,0.0522
17,GATAGACC,-0.00571
18,ATAAAAAC,0.123
19,CACCAGGC,-0.27
20,AGTTATGG,-0.179
21,CCCTTCAG,-0.232
22,ATCTCAGA,-0.0306
23,CACCGATA,-0.00776
24,CCGGTGCA,-0.153
25,AGCTGTAA,0.0117

row,Sequence,PBM E-score
1,CCGGCAGG,-0.141
2,CCTTTGAG,-0.14
3,CTCATATC,-0.258
4,TATGGTCA,0.0341
5,ATGATGCC,-0.174
6,ATTCACGC,-0.103
7,GACTACGA,0.218
8,GAAGCCCA,-0.121
9,GATGTACC,-0.0576
10,AACCGGGC,0.0434
11,CGGCGTGA,-0.232
12,CCTACCAA,-0.205
13,AGGGTGCA,-0.29
14,CCCTGCGA,-0.116
15,CGTCGCAA,0.149
16,CGTCGGCA,0.0991
17,AAATCACC,-0.095
18,GCACAGGA,-0.182
19,GTCAAAGA,0.0912
20,AATCCGCT,-0.101
21,AACTTGAA,-0.106
22,CTTTCTGA,-0.152
23,TACGTAGA,0.18
24,ACAGCTCA,-0.185
25,CATTCCGC,-0.213

row,Sequence,PBM E-score
1,ATAGACAG,-0.0478
2,GGATATAC,0.156
3,CAGCTCAA,-0.165
4,ATTTGGCC,-0.191
5,AACGCCTT,-0.0624
6,ATCATAAT,0.0818
7,CGGCGTTA,0.128
8,CTCGGTTC,0.156
9,AAGTATTC,-0.0945
10,AGAGTGCT,0.00309
11,AGTACAAG,-0.052
12,AACACCAA,0.0411
13,ATCATTTC,-0.0212
14,ATACAACG,0.0599
15,CTAAAACC,-0.156
16,CGGCCTAG,-0.233
17,ACGTACGT,0.293
18,ACTACTCA,-0.131
19,ACCGAGCG,0.268
20,CGCGTCGA,-0.0357
21,ACAGCACG,0.0813
22,AAAGGCAC,-0.202
23,AGGCCTGG,-0.0671
24,ACACAGCG,0.104
25,TAGTCCAA,-0.158

row,Sequence,PBM E-score
1,CGTTCCAC,0.331
2,AGTACTGG,-0.0923
3,ACATCGTA,0.425
4,ATTAAAGA,-0.00799
5,TCGTTCCA,0.46
6,ATGTTTGC,-0.103
7,ACATACGA,0.476
8,TCCGTGCA,-0.114
9,GTGATGGA,-0.181
10,CTTAATTA,-0.107
11,CAGACTAC,0.0927
12,CAACCTTA,-0.207
13,ATAGACTC,-0.0791
14,CAAGCCAA,0.12
15,GAGTAGCA,-0.13
16,CCAAGTTA,-0.193
17,TTCCGAAA,-0.00315
18,ATTTAATC,-0.00608
19,GGAATAAA,-0.0324
20,CGGACCTA,-0.0897
21,GGGTCCAA,0.0556
22,ATCATAAA,-0.144
23,TAAGTACA,0.0118
24,ACACTCCC,-0.214
25,CATTTTCA,-0.0947

row,Sequence,PBM E-score
1,CAGGAATA,-0.136
2,GGTCCGTA,0.308
3,ATCAGCAG,-0.206
4,ACAGCGTC,0.0232
5,CACTGGAG,-0.333
6,AGGAGCCT,-0.12
7,ACATCCGG,0.0179
8,GCTTGGGA,-0.177
9,CGGACGCC,-0.0318
10,AATGGCCT,-0.147
11,GGATGGAA,-0.0401
12,CGTCTGAA,-0.0488
13,AATTTTAA,0.123
14,GGTTCGCA,0.122
15,CTGGCTTA,-0.142
16,CTGTACCC,-0.141
17,GGTAAAGA,0.0863
18,AATGAGTA,0.123
19,GCGGTGCA,-0.064
20,ATAGCCAA,0.109
21,ATTAAATG,-0.098
22,AACTGGGT,-0.217
23,AAATGCCC,-0.246
24,ACCTTCCG,0.0456
25,ACGATTTG,0.28

row,Sequence,PBM E-score
1,CTATTAGC,0.0438
2,CGGGCCGA,-0.134
3,CCGAATGC,-0.0189
4,TCCTAGCA,-0.224
5,TTCAAGAA,0.109
6,GGTTGTAA,-0.225
7,AGTCAGGA,-0.211
8,AGGGAAGC,-0.182
9,TCGAGAAA,-0.0489
10,GCGGGGAA,-0.012
11,CTGCCAAG,0.00123
12,AGAAAAAG,-0.233
13,GAAGGCCC,0.0228
14,CCTTCCCG,-0.15
15,ATCGCGGG,0.0563
16,AGTCTGAG,-0.181
17,AGTTAAGG,-0.14
18,ACATAGCA,-0.217
19,ACTGCTCG,0.135
20,CTATTTAA,-0.00788
21,TAGGAATA,-0.197
22,GTCTTTAA,0.00736
23,CCGTATAG,0.485
24,ATTTTATG,-0.0194
25,CTACGTGC,-0.0358

row,Sequence,PBM E-score
1,CCAGTACG,0.312
2,GCAGAAGA,-0.0226
3,AGACATAA,0.00996
4,TATCGGAA,0.133
5,GTCGCTTA,0.396
6,GTGCCCTA,-0.129
7,AATCCCAG,-0.149
8,CTAGCGAC,-0.0103
9,AGTCCATC,0.0877
10,GAGTACGA,0.375
11,GCCATGGA,-0.21
12,TCGGCTCA,-0.0257
13,GCAGTATA,0.219
14,CGTCGCGA,0.182
15,ACCTGGCT,-0.0587
16,AACATGAC,-0.169
17,AATGTTCA,-0.0874
18,CAAGAAGG,-0.178
19,GTGGACCA,-0.182
20,CGGGGGCC,0.111
21,CACTCTGC,-0.0292
22,AGACTGAT,-0.166
